From PubChem BioAssay AID1508623 (National Center for Advancing Translational Sciences (NCATS), 2021)
In all, about 48,000 compounds went through this assay and about 450 (0.94%) were called active. Another 19% or so got no clear call; they are omitted. Calls follow the shape of the dose curve; as a rule, active = well fitted inhibition curve with a large enough effect; inconclusive = small, poorly fitted or top-dose-only effect; inactive = no such curve, though single readings can be large or run the other way. Some of the results follow.

Assay: Primary qHTS for Identification of Small Molecule Inhibitors of Huntingtin Promoter Activity; also: nearly all actives have a fitted effect of over 50% in size
Details: HEK293 HTT promoter firefly luciferase reporter (activity 0% = vehicle and -100% = no light), 24 h; series mostly up to 57.5 µM; activity change, negative = inhibition: at the top concentration
Procedure, shortened: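 HEK293 luciferase promoter-reporter cells (2,500/well) plated 24 h, then compounds added at up to 57.5 uM final for 24 h at 37 °C. Firefly luminescence by Dual-Glo, normalized to vehicle (0%) and zero RLU (-100%).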
Potency is read from the fitted curve at half-maximal effect.

| SMILES | activity change, negative = inhibition | Potency |
| --- | --- | --- |
| Cc1ccc(C(=O)COC(=O)C(Cc2c[nH]c3ccccc23)NC(=O)c2ccc(Br)cc2)cc1 (stereo unspecified) | inactive: -5.1% |  |
| O=C(NCCCO)C(=O)Nc1c2c(nn1-c1ccc(F)cc1)CSC2 | inactive: -11.9% |  |
| COc1ccc(NC(=O)C2=C(C)Nc3nc(SC)nn3C2c2cc(OC)ccc2OC)cc1 (stereo unspecified) | inactive: -0.58% |  |
| Cc1nnc(N2CCC(C(=O)NCc3ccc(N(C)C)cc3)CC2)c2nn(-c3ccccc3)c(C)c12 | inactive: -7.49% |  |
| c1ccc(N2CCN(c3ncnc4c3nc3n4CCCC3)CC2)cc1 |  | active: 12.6 µM |
| Cc1cc2oc(C(=O)Nc3cccc(-c4nc5ccccc5o4)c3)c(C)c2cc1Cl | inactive: -11.8% |  |
| O=C(Nc1ccc(Cl)cc1)c1ccc2c(c1)N(Cc1ccccc1)C(=O)c1ccccc1S2(=O)=O | inactive: -23.6% |  |
| CN(CC(=O)Nc1cccc(C#N)c1)S(=O)(=O)c1cc2c(cc1Cl)NC(=O)CO2 | inactive: -21.6% |  |
| CCOc1ccccc1CNC(=O)CC(C)n1ccc(C)n1 (stereo unspecified) | inactive: -7.65% |  |
| CCOC(=O)c1cccc(NC(=O)CCn2nc(C)c3c(C)n(-c4ccccc4)nc3c2=O)c1 | inactive: -24.8% |  |
| COCCCNC(=O)C1CCCN(S(=O)(=O)c2ccc3c(c2)oc(=O)n3C)C1 (stereo unspecified) | inactive: -18.2% |  |
| COc1ccccc1CNC(=O)c1ccc(CN2CC(=O)N3CCCCC3C2=O)cc1 (stereo unspecified) | inactive: -17.1% |  |
| COc1ccccc1C(=O)NCC1(N2CCN(C)CC2)CCCCC1 | inactive: -12.6% |  |
| Cc1ccc(C)c(NC(=O)N2CCC(N3CCN(Cc4ccc(F)cc4)C(=O)C3=O)CC2)c1 | inactive: -11.9% |  |
| Cc1ccccc1Nc1cc(C(=O)NC2CCCCC2)c2ccccc2n1 | inactive: 2.29% |  |
| CCOCCCn1c(SCC(=O)NCCCOC)nc2c(sc3ccccc32)c1=O | inactive: -8.94% |  |
| Cc1c(NC(=O)c2ccccc2)cc(C(C)C)c(O)c1S(=O)(=O)c1ccc(Cl)cc1 | inactive: -5.83% |  |
| Fc1ccc(Nc2ncnc3c2nc2n3CCCC2)cc1 | inactive: 22.2% |  |
| CCOC(=O)N1CCc2c(sc3c2c(=O)n(-c2ccc(Cl)cc2)c(=O)n3Cc2cccc(C)c2)C1 | inactive: -10.6% |  |
| Cn1c(=O)oc2cc(S(=O)(=O)N3CCCC(C(=O)N4CCN(c5ccccc5F)CC4)C3)ccc21 (stereo unspecified) | inactive: -24.3% |  |
| O=C(NCCS(=O)(=O)N1CCN(c2ccc(F)cc2)CC1)c1cc(=O)c2ccccc2o1 | inactive: -18% |  |

| SMILES | activity change, negative = inhibition | Potency |
| --- | --- | --- |
| CSc1cccc(Nc2cc(C(=O)NCCCN(Cc3ccccc3)C(C)C)c3ccccc3n2)c1 | inactive: -17% |  |
| COc1ccccc1N1CCN(S(=O)(=O)c2cc3[nH]c(=O)c(=O)[nH]c3cc2C)CC1 | inactive: 3.23% |  |
| Cc1ccc2occ(CC(=O)N(Cc3ccc(N(C)C)cc3)C3CCS(=O)(=O)C3)c2c1 (stereo unspecified) | inactive: -18% |  |
| CCOc1ccc(CNC(=O)CCC(=O)N2CCSc3ccccc32)cc1 | inactive: -21.2% |  |
| COc1ccc2nc(N3CCN(C(=O)C4CC4)CC3)sc2c1 | inactive: 35.3% |  |
| COC(=O)c1cc2oc3ccccc3c2n1Cc1c(F)cccc1Cl | inactive: -8.11% |  |
| CCc1cccc(NC(=O)CN2CCCN(Cc3cccc(C)c3)S2(=O)=O)c1 | inactive: -10.8% |  |
| Cc1ccc(Cl)cc1N(C)C(=O)c1cnc(N2CCOCC2)c2ccccc12 | inactive: -5.1% |  |
| CCN(CC)C(=O)C1CCCN(c2ncnc3onc(C)c23)C1 (stereo unspecified) | inactive: -24.3% |  |
| COc1cccc(-c2nc3c(C#N)c[nH]n3c2NC2CCCCC2)c1OC | inactive: -20.8% |  |
| CC(NC(=O)c1sc2ncccc2c1-n1cccc1)c1ccccc1 (stereo unspecified) | inactive: -20.6% |  |
| O=C(NCC(c1cccnc1)N1CCN(Cc2ccccc2)CC1)C(=O)Nc1cccc(F)c1 (stereo unspecified) | inactive: 12.3% |  |
| Cc1ccc(Cn2c(=O)n(CC3CCC(C(=O)N4CCOCC4)CC3)c(=O)c3sccc32)cc1 (stereo unspecified) | inactive: 6.05% |  |
| O=C(CC1Oc2ccc(Cl)cc2NC1=O)NCc1ccccc1 (stereo unspecified) | inactive: -5.5% |  |
| CCOC(=O)CC(NC(=O)Cn1nnc(-c2ccc(C(F)(F)F)cc2)n1)c1ccc(C)cc1 (stereo unspecified) | inactive: -27% |  |
| COc1ccc(CCNC(=O)CCCCCn2c(SCC(N)=O)nc3cc4c(cc3c2=O)OCO4)cc1OC | inactive: -15.2% |  |
| CCN(CC)S(=O)(=O)c1ccc2c(c1)N(CC(=O)Nc1ccc(F)cc1)C(=O)CO2 | inactive: -12.6% |  |
| Cc1ccc(C)c(N(C)C(=O)C2CCN(c3ncnc4c3nc3n4CCCCC3)CC2)c1 | inactive: -21.1% |  |
| Cn1cnc(S(=O)(=O)N2CCCC(C(=O)Nc3cccc(C#N)c3)C2)c1 (stereo unspecified) | inactive: -16.7% |  |
| O=C(Nc1c(C(=O)c2ccc(F)cc2)oc2ccccc12)c1cc(-c2ccccc2)on1 | inactive: -16.9% |  |
| COc1ccc(NC(=O)N(Cc2nnc3n2CCCCC3)c2ccc(OC)c(Cl)c2)cc1 | inactive: -1.08% |  |

| SMILES | activity change, negative = inhibition | Potency |
| --- | --- | --- |
| CCN(CC)S(=O)(=O)c1nnc(NC(=O)COc2cccc(C)c2)s1 | inactive: -13.7% |  |
| COCCNC(=O)CSc1nc2ccccc2nc1Cc1ccc(C)cc1 | inactive: -11.5% |  |
| CCOc1ccc(CNC(=O)c2ccc3nc(CC)c(CC)nc3c2)cc1OC | inactive: -6.11% |  |
| CCc1ccc(S(=O)(=O)c2c(C(=O)c3ccc(C)c(C)c3)cnc3ccccc23)cc1 | inactive: -9.5% |  |
| COc1cccc(N2CCN(c3ccc4nnc(CCC(=O)O)n4n3)CC2)c1 | inactive: 7.42% |  |
| COc1cccc(Cc2nc3ccccc3nc2SCC(=O)Nc2ccccc2F)c1 | inactive: -27.9% |  |
| Cc1c(C(=O)NCc2ccccc2Cl)cccc1-n1cnc2cccnc21 | inactive: -22.8% |  |
| Cc1cccc(CNC(=O)c2ccc3nc(-c4ccccc4)c(-c4ccccc4)nc3c2)c1 | inactive: 1.83% |  |
| CCC1(c2ccccc2)C(=O)NCNC1=O | inactive: -0.198% |  |
| CC(C)C1N=C2c3ccccc3N=C(SCC(=O)NCc3ccc(F)cc3)N2C1=O (stereo unspecified) | inactive: -21.5% |  |
| Cc1cccc(NC(=O)Cn2c(=O)n(CCc3ccccc3)c(=O)c3sc4ccccc4c32)c1 | inactive: 21.6% |  |
| CCC12CN3CC(C)(CN(C1)C3c1c(C)n(C)c3ccccc13)C2=O (stereo unspecified) | inactive: -7.84% |  |
| O=C(CSc1nc2c([nH]c3ccccc32)c(=O)n1-c1ccc(F)cc1)N1CCCc2ccccc21 | inactive: 6.02% |  |
| CCOC(=O)Cn1c(=O)n(C2CCCCC2)c2nc(-c3ccccc3Cl)nc(C(N)=O)c21 | inactive: -14.2% |  |
| Cc1cccc(C)c1OCc1nc2c3cnn(-c4ccccc4Br)c3ncn2n1 | inactive: -6.71% |  |
| Nc1c(-c2nc(-c3ccc(Cl)cc3)no2)nnn1-c1ccc(C(F)(F)F)c(Cl)c1 | inactive: -7.11% |  |
| COc1ccc(CCN2C(=O)c3[nH]nc(-c4ccccc4O)c3C2c2ccc(O)c(OC)c2)cc1 (stereo unspecified) | inactive: -14.8% |  |
| COc1ccc(-c2c(C)nn3c(-c4ccccc4)cc(-c4ccccc4)nc23)cc1OC | inactive: 15.3% |  |
| O=C(NC1CCCCC1)c1cc(Nc2ccccc2)nc2ccccc12 | inactive: 4.37% |  |
